# According to patent US20220323594A1, “LIPIDATED CATIONIC PEPTIDE-PEG COMPOSITIONS FOR NUCLEIC ACID DELIVERY” (NUTCRACKER THERAPEUTICS, INC., priority 2019, published 2022):
# At least one compound was matched to its structure with a doubt left.
# What was measured:
# HeLa cells [1] = test: In vitro expression of firefly luciferase (Fluc) after treatment with Fluc mRNA/amino lipidated peptoid formulations, no PEG or 2% DMG-PEG2000; assay type: cell-based
# Procedure: The efficacy of mRNA/amino lipidated peptoid formulations was evaluated in vitro based on their ability to deliver the firefly luciferase (Fluc) reporter gene to cultured cells. Amino lipidated peptoids were combined with Fluc mRNA at a 5:1 w/w ratio, and the resulting particles were added to cultured HeLa cells at a dose of 100 ng/well (in 100 μL total volume). The resulting luciferase expression (RLU) was measured by a luminescence plate reader after 6 hours and 24 hours of treatment. […] In addition to evaluating nanoparticle complexes formed between mRNA cargos and amino lipidated peptoids alone, multicomponent formulations containing a small amount of PEG-lipid DMG-PEG2000 were also tested for in vitro Fluc mRNA delivery. In these formulations, DMG-PEG2000 was pre-mixed with candidate peptoid at an overall 2% incorporation (w/w), while maintaining the same 5:1 mass ratio of peptoid:mRNA used previously.
# HeLa cells [2] = test: In vitro Fluc expression with variable peptoid:mRNA mass ratio, 2% DMG-PEG2000; assay type: cell-based; conditions: 24 h; for Observed Luciferase Expression (RLU) for Given Formulation Mass Ratio 2:1: 2% (w/w) DMG-PEG2000, peptoid:mRNA 2:1; for Observed Luciferase Expression (RLU) for Given Formulation Mass Ratio 3.5:1: 2% (w/w) DMG-PEG2000, peptoid:mRNA 3.5:1; for Observed Luciferase Expression (RLU) for Given Formulation Mass Ratio 5:1: 2% (w/w) DMG-PEG2000, peptoid:mRNA 5:1; for Observed Luciferase Expression (RLU) for Given Formulation Mass Ratio 7.5:1: 2% (w/w) DMG-PEG2000, peptoid:mRNA 7.5:1
# Procedure: The charge ratio dependence of amino lipidated peptoid delivery vehicles was evaluated by formulating particles between Fluc mRNA and delivery vehicles at varying mass ratios. Formulations were varied between 2:1 and 7.5:1 peptoid:mRNA (w/w) ratios (2:1, 3.5:1, 5:1 and 7.5:1). In addition, the role of DMG-PEG2000 was also explored with the mass ratios, either by excluding DMG-PEG2000 or incorporating DMG-PEG2000 at 2% (w/w) relative to amino lipidated peptoid. Fluc expression from these formulations was measured in HeLa cells following treatment for 24 hours. […] FIGS. 6B and 6C show plots of the average bioluminescence (RLU) for HeLa cells treated with the formulations of exemplary amino lipidated cationic peptoid compounds 1-36, all formulated with 2% w/w DMG-PEG2000.
# [3] = Dynamic light scattering (DLS) of mRNA/peptoid formulations: particle size and polydispersity; assay type: physicochemical; conditions: Fluc mRNA/peptoid formulation; for Size PDI: size polydispersity index by DLS, 5:1 mass ratio; for Size (nm): volume average particle size/diameter by DLS, 5:1 mass ratio peptoid:cargo
# Procedure: (§1) To prepare nanoparticle formulations, the amino lipidated peptoid is mixed by pipetting with nucleic acid at a mass ratio between approximately 1:1 (peptoid:cargo) and 20:1. Prior to formulation, amino lipidated peptoid and nucleic acid cargo were diluted in ethanol and acidic buffer (PBS adjusted to pH 5.5 with 0.1 M HCl) respectively to a volume ratio of 1:3 and to target a final cargo concentration of approximately 0.05 mg/mL to 0.2 mg/mL. The exemplary amino lipidated cationic peptoids described in Example 2 were combined with firefly luciferase (Fluc) mRNA to form nanoparticle compositions to be evaluated for therapeutic and/or prophylactic purposes in vitro or in vivo. The formulations were prepared according to the protocol of Example 3 and mixed by simple pipetting. The mRNA/peptoid formulation at a 5:1 mass ratio of peptoid:cargo were evaluated by dynamic light scattering (DLS) in order to determine the volume average particle size/diameter (nm) of the mRNA/peptoid complex and the size polydispersity index (PDI) within the formulation. The percentage of mRNA encapsulation for each formulation of the exemplary compounds were determined by fluorescence of the Qubit RNA HS (Invitrogen) dye before and after lysis of particles by Triton X-100.
# [4] = mRNA encapsulation by fluorescence of Qubit RNA HS dye before and after lysis with Triton X-100; assay type: physicochemical; conditions: percentage of mRNA encapsulation; Fluc mRNA/peptoid formulation, 5:1 mass ratio
# Procedure: as §1, with “The” for “To prepare nanoparticle formulations, the amino lipidated peptoid is mixed by pipetting with nucleic acid at a mass ratio between approximately 1:1 (peptoid:cargo) and 20:1. Prior to formulation, amino lipidated peptoid and nucleic acid cargo were diluted in ethanol and acidic buffer (PBS adjusted to pH 5.5 with 0.1 M HCl) respectively to a volume ratio of 1:3 and to target a final cargo concentration of approximately 0.05 mg/mL to 0.2 mg/mL. The”
# Balb/c mice [5] = test: In vivo whole-body expression of Fluc following IV administration; conditions: Balb/c mice (n=3), IV tail-vein, 0.5 mg/kg, 5:1 peptoid:mRNA, 2% w/w DMG-PEG2000, 8 hours
# Procedure: (§2) Amino lipidated peptoid delivery vehicles are effective for in vivo administration of Fluc mRNA to Balb/c mice (n=3) through multiple routes of administration. Briefly, representative amino lipidated peptoid/Fluc formulations (prepared at a 5:1 mass ratio of amino lipidated peptoid:mRNA unless noted, with 2% w/w DMG-PEG2000) were administered at a dose of 0.5 mg/kg via a tail-vein injection, and the resulting bioluminescence was quantified after 8 hours.
# Balb/c mice [6] = test: In vivo organ-specific bioluminescence (biodistribution of Fluc) following IV administration
# Procedure: as §2, with “hours. […] Organ-specific bioluminescence was quantified by sacrificing the treated animal, dissecting out the organs of interest, and separately quantifying the resulting bioluminescence. […] FIG. 7C depicts a bar chart quantifying the organ-specific biodistribution of the formulations as a function of total photon flux.” for “hours.”
# [7] = no PEG, peptoid:Fluc mRNA 5:1 w/w, 100 ng/well, 6 h of treatment
# [8] = no PEG, peptoid:Fluc mRNA 5:1 w/w, 100 ng/well, 24 h of treatment
# [9] = with 2% (w/w) DMG-PEG2000, peptoid:mRNA 5:1, 6 h after treatment
# [10] = with 2% (w/w) DMG-PEG2000, peptoid:mRNA 5:1, 24 h after treatment
Structure (SMILES),Luciferase Expression (RLU) 6 h (HeLa cells [1]; [7]) [RLU],Luciferase Expression (RLU) 24 h (HeLa cells [1]; [8]) [RLU],Luciferase Expression (RLU) 6 h (HeLa cells [1]; [9]) [RLU],Luciferase Expression (RLU) 24 h (HeLa cells [1]; [10]) [RLU],Observed Luciferase Expression (RLU) for Given Formulation Mass Ratio 2:1 (HeLa cells [2]) [RLU],Observed Luciferase Expression (RLU) for Given Formulation Mass Ratio 3.5:1 (HeLa cells [2]) [RLU],Observed Luciferase Expression (RLU) for Given Formulation Mass Ratio 5:1 (HeLa cells [2]) [RLU],Observed Luciferase Expression (RLU) for Given Formulation Mass Ratio 7.5:1 (HeLa cells [2]) [RLU],Size PDI [3],Size (nm) [3] [nm],% Encapsulation [4] [%],"Total Flux (photons/sec), whole body (Balb/c mice [5]) [photons/sec]",Total Flux (p/s) Liver (Balb/c mice [6]; dissected liver) [p/s],Total Flux (p/s) Lung (Balb/c mice [6]; dissected lung) [p/s],Total Flux (p/s) Spleen (Balb/c mice [6]; dissected spleen) [p/s]
CCCCCCCCCCN(CC(N)=O)C(=O)CN(CCCCCCCCCC)C(=O)CN(CCCCCCCCCC)C(=O)CN(CCCCCCCCCC)C(=O)CN(CCc1ccccc1)C(=O)CN(CCc1ccccc1)C(=O)CN(CC1CCCN1)C(=O)CN(CCc1ccccc1)C(=O)CN(CCc1ccccc1)C(=O)CN(CC1CCCN1)C(=O)CN(CCc1ccccc1)C(=O)CN(CCc1ccccc1)C(=O)CN(CC1CCCN1)C(=O)CN(CCc1ccccc1)C(=O)CN(CCc1ccccc1)C(=O)CNCC1CCCN1 (centres unmarked) [Compound 35],1.22E+03,1.60E+03,4.45E+02,7.59E+02,1.72E+02,9.94E+02,2.92E+03,3.69E+03,0.486,359.8,38.0,–,–,–,–
CCCCCCCCCCN(CC(N)=O)C(=O)CN(CCCCCCCCCC)C(=O)CN(CCCCCCCCCC)C(=O)CN(CCCCCCCCCC)C(=O)CN(CCCCCCCCCC)C(=O)CN(CCc1ccccc1)C(=O)CN(CCc1ccccc1)C(=O)CN(CCN)C(=O)CN(CCc1ccccc1)C(=O)CN(CCc1ccccc1)C(=O)CN(CCN)C(=O)CN(CCc1ccccc1)C(=O)CN(CCc1ccccc1)C(=O)CN(CCN)C(=O)CN(CCc1ccccc1)C(=O)CN(CCc1ccccc1)C(=O)CNCCN [Compound 21],3.45E+03,1.24E+04,1.42E+04,8.84E+03,1.92E+03,2.29E+04,5.29E+04,2.01E+04,0.174,386.5,65.4,–,–,–,–
CCCCCCCCCCN(CC(N)=O)C(=O)CN(CCCCCCCCCC)C(=O)CN(CCc1ccccc1)C(=O)CN(CCc1ccccc1)C(=O)CN(CCN)C(=O)CN(CCc1ccccc1)C(=O)CN(CCc1ccccc1)C(=O)CN(CCN)C(=O)CN(CCc1ccccc1)C(=O)CN(CCc1ccccc1)C(=O)CN(CCN)C(=O)CN(CCc1ccccc1)C(=O)CN(CCc1ccccc1)C(=O)CN(CCN)C(=O)CN(CCc1ccccc1)C(=O)CN(CCc1ccccc1)C(=O)CNCCN [Compound 12],4.04E+02,5.71E+02,3.13E+02,3.36E+02,2.64E+04,1.60E+04,1.20E+04,1.58E+03,0.211,224.4,86.5,1.65E+07,2.74E+06,6.23E+05,2.36E+06
CCCCCCCCCCN(CC(N)=O)C(=O)CN(CCCCCCCCCC)C(=O)CN(CCCCCCCCCC)C(=O)CN(CCCCCCCCCC)C(=O)CN(CCc1ccccc1)C(=O)CN(CCc1ccccc1)C(=O)CN(CCCN)C(=O)CN(CCc1ccccc1)C(=O)CN(CCc1ccccc1)C(=O)CN(CCCN)C(=O)CN(CCc1ccccc1)C(=O)CN(CCc1ccccc1)C(=O)CN(CCCN)C(=O)CN(CCc1ccccc1)C(=O)CN(CCc1ccccc1)C(=O)CNCCCN [Compound 29],1.64E+03,6.72E+03,1.84E+03,1.18E+03,3.67E+02,3.99E+03,1.46E+04,1.77E+04,0.237,343.4,24.8,–,–,–,–
CCCCCCCCCCN(CC(N)=O)C(=O)CN(CCCCCCCCCC)C(=O)CN(CCCCCCCCCC)C(=O)CN(CCCCCCCCCC)C(=O)CN(CCc1ccccc1)C(=O)CN(CCc1ccccc1)C(=O)CN(CC1CCCN1)C(=O)CN(CCc1ccccc1)C(=O)CN(CCc1ccccc1)C(=O)CN(CC1CCCN1)C(=O)CN(CCc1ccccc1)C(=O)CN(CCc1ccccc1)C(=O)CNCC1CCCN1 (centres unmarked) [Compound 34],1.95E+03,2.71E+03,5.70E+02,7.26E+02,3.67E+02,3.40E+03,2.54E+03,2.66E+03,0.295,348.4,58.0,–,–,–,–
